Assay results reported in PubChem BioAssay AID2546 (National Center for Advancing Translational Sciences (NCATS), 2010).
Several values for one entry are separate records, joined by “and”; a condition that tells them apart may be missing. Identical values can stand only once. In all, about 310,000 compounds went through this assay and about 11,000 (3.5%) were called active. The inconclusive results got no clear call from the source; some entries with a clear call stand among them for comparison. The call rests on the fitted dose curve; in most records, active means well fitted inhibition curve with a large enough effect; inconclusive means small, poorly fitted or top-dose-only effect, or effect the other way; inactive means flat fitted curve, though single readings scatter. Potencies of inconclusive entries are doubtful fits and often do not repeat.

Assay: VP16 counterscreen qHTS for inhibitors of ROR gamma transcriptional activity;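 further: Gal4-VP16 expression switched on by copper sulfate through the metallothionein promoter; nearly all actives have a fitted effect of over 50% in size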
Details: Drosophila S2 Gal4-VP16 UAS-luciferase, luminescence, 20 h; activity, negative = inhibition: at 53.6 µM (top of the series)
On the % scale 0 is the no-effect control and ±100 the full control effect; potency means the concentration at half of the fitted maximal effect; tags describe the fitted curve by direction and shape.

Row | SMILES | activity, negative = inhibition | Potency
1 | CC(C)c1nc(SCC(=O)Nc2c[nH]c(=O)[nH]c2=O)c2cnn(-c3ccccc3)c2n1 | inactive: -1.08% | –
2 | Cc1nn(CC(=O)NCc2cccs2)c(=O)c2nn(-c3ccccc3)c(C)c12 | inactive: -4.09% | –
3 | CO[C@@H]1COC(=O)[C@H]2CCCN2C(=O)[C@@H](C)COC(=O)C/C=C\[C@H]1C | inactive: -14.7% [at 10 µM] | –
4 | COc1cc(OC)cc(-c2n[nH]c(=S)n2-c2ccc3c(c2)OCO3)c1 | – | inconclusive: 25.1 µM [inhibitor, single point]
5 | Cn1nc(C(=O)NCc2ccc(Cl)cc2)c2c1-c1ccccc1S(=O)(=O)C2 | inactive: 1.78% | –
6 | COCCN1CCN(c2cc(-c3ccccc3)nc3cc(-c4cccc(F)c4)nn23)CC1 | inactive: -20.9% | –
7 | CCNC(=S)N1CCC(C(=O)c2ccc(Cl)cc2)CC1 | inactive: -1.9% | –
8 | COc1ccc2c(=O)c(-c3ccc4c(c3)OCO4)coc2c1 | – | inconclusive: 14.1 µM [inhibitor, partial curve]
9 | Cc1cc(C(=O)Nc2nc3c(s2)CCCC3)cs1 | – | active: 6.31 µM
10 | CC(C)NS(=O)(=O)c1ccc(CCC(=O)NCc2ccncc2)cc1 | – | inconclusive: 35.5 µM [inhibitor, single point]
11 | Cc1nnc(SCc2cnc(-c3ccc(C(C)C)cc3)s2)n1C | – | active: 11.2 µM
12 | O=[N+]([O-])c1cccc2c1ccc1ncccc12 | inactive: -6.09% | –
13 | CC(C)C(=O)NC(c1ccc([N+](=O)[O-])cc1)c1c(O)ccc2ccccc12 (centres undefined) | – | active: 12.6 µM
14 | COc1cc([N+](=O)[O-])cc(/C=N/NC(=O)Cn2nccc2C)c1O | – | inconclusive: 20 µM [inhibitor, single point]
15 | O=C(NC[C@@H](O)CO)c1c(I)c(C(=O)NC[C@@H](O)CO)c(I)c(N(CCO)C(=O)CO)c1I | inactive: -10.5% [at 17 µM] | –
16 | CCCC[C@@H]1C[C@H]1C(NC(=O)c1cccs1)c1ccc(Cl)cc1 (some centres undefined) | – | inconclusive: 35.5 µM [inhibitor, single point]
17 | O=c1c2c3c(sc2[nH]c(=S)n1Cc1ccco1)CCC3 | – | inconclusive: 35.5 µM [inhibitor, single point]
18 | CCOC(=O)c1cnc(SC2CC(=O)N(c3cccc(OC)c3)C2=O)nc1N (centres undefined) | – | inconclusive: 35.5 µM [inhibitor, single point]
19 | O=C(CSCc1ccccc1)NNC(=S)Nc1cccc(Cl)c1Cl | – | inconclusive: 11.2 µM [inhibitor, partial curve]
20 | CCCC[N+](CC#CCO)(CC#Cc1ccccc1)CCCC | inactive: 2.04% | –
21 | COc1cc(/C=N/NC(=O)COc2c(C)cc([N+](=O)[O-])cc2C)ccc1OC(=O)c1ccccc1Br | – | inconclusive: 5.62 µM [activator, single point]
22 | O=C(NC(=S)Nc1nc(-c2ccccc2)cs1)c1cncc(Br)c1 | – | inconclusive: 15.8 µM [inhibitor, single point]
23 | CN(c1ccccc1)S(=O)(=O)c1cc(C(=O)Nc2nc3ccccc3[nH]2)ccc1Cl | – | active: 3.16 µM

Row | SMILES | activity, negative = inhibition | Potency
24 | CCN(c1ccccc1)S(=O)(=O)c1cc(C(=O)Nc2ccc(F)c(F)c2)ccc1F | – | inconclusive: 28.2 µM [inhibitor, single point]
25 | O=C(O)C1C2C=CC(O2)C1C(=O)Nc1ccc(S(=O)(=O)Nc2ccccc2)cc1 (centres undefined) | – | inconclusive: 22.4 µM [inhibitor, single point]
26 | COc1cc(-c2cc(N)n(S(=O)(=O)c3ccc(F)cc3)n2)cc(OC)c1OC | – | inconclusive: 15.8 µM [inhibitor, single point]
27 | COc1ccc(-c2nc3cc(C)ccn3c2NCc2ccc3c(c2)OCO3)cc1 | – | inconclusive: 35.5 µM [inhibitor, single point]
28 | O=C(NCc1ccc(F)cc1)NC(=O)c1ccc(Cl)cc1 | – | inconclusive: 14.1 µM [inhibitor, single point]
29 | Cc1cc(NC(=O)Nc2ccccc2F)ccc1Br | – | inconclusive: 14.1 µM [inhibitor, single point]
30 | COc1ccc(/C=N\NC(=O)c2ccccc2Br)cc1COc1c(F)c(F)cc(F)c1F | – | inconclusive: 31.6 µM [inhibitor, single point]
31 | CN[C@H]1CCc2cc(OC)c(OC)c(OC)c2-c2ccc(N(C)CC(OC)OC)c(=O)cc21 | inactive: -13.7% | –
32 | CC1CC(C)CN(CCCNC(=O)c2ccc3c(c2)ncn3C2CCCC2)C1 (centres undefined) | – | inconclusive: 6.31 µM [inhibitor, single point]
33 | CSc1nsc(SCC(=O)Nc2ccc(C(N)=O)cc2)n1 | – | inconclusive: 3.98 µM [activator, partial curve]
34 | CCCCc1nnc2c(N(C)S(=O)(=O)c3ccccc3)nc3ccccc3n12 | – | inconclusive: 14.1 µM [inhibitor, partial curve]
35 | COc1ccc2c(c1)c1nc3ccccc3nc1n2Cc1ccc(OC)c(OC)c1 | – | inconclusive: 14.1 µM [inhibitor, single point]
36 | CCOc1ccc(CCNC(=O)CSCc2ccc(C)cc2)cc1OCC | – | inconclusive: 35.5 µM [inhibitor, single point]
37 | COc1ccc(CC(=O)NCC2(c3ccc(OC)c(OC)c3)CCCC2)cc1 | inactive: -5.09% | –
38 | O=C1S/C(=C\c2ccc(N3CCOCC3)o2)C(=O)N1c1ccccc1 | – | inconclusive: 35.5 µM [inhibitor, single point]
39 | CN1CCN(C(=S)NC(=O)/C=C/c2ccccc2Cl)CC1 | – | inconclusive: 22.4 µM [inhibitor, single point]
40 | Cc1cc(/C=N/NC(=O)c2ccc(CN3CCOCC3)cc2)c(C)n1-c1ccccc1 | – | inconclusive: 35.5 µM [inhibitor, single point]
41 | S=C(NCCSCc1ccc(Cl)cc1)Nc1ccccc1 | – | active: 11.2 µM
42 | Cc1ccc(N=Nc2ccc(C)cc2NC(=O)Nc2ccccc2F)cc1 | – | inconclusive: 22.4 µM [activator, single point]
43 | O=C(O)CC(NC(=S)NCc1ccccc1)C(=O)O (centres undefined) | – | active: 11.2 µM
44 | COc1cccc(NC(=S)NC(C)c2ccc(OC)c(OC)c2)c1 (centres undefined) | – | inconclusive: 35.5 µM [inhibitor, single point]
45 | CC(=O)Nc1cc(OC(C)=O)c2nonc2c1OC(C)=O | – | inconclusive: 17.8 µM [inhibitor, single point]
46 | COc1ccc(NC(=O)CSc2nc3ccccc3n2-c2ccccc2)c([N+](=O)[O-])c1 | – | inconclusive: 10 µM [inhibitor, partial curve, poor fit]

Row | SMILES | activity, negative = inhibition | Potency
47 | COc1ccc(CCN2CCC(Nc3nc4ccccc4n3Cc3ccc(F)cc3)CC2)cc1 | – | inconclusive: 35.5 µM [inhibitor, single point] and inconclusive: 22.4 µM [inhibitor, single point]
48 | Cc1ccc(C2CC(c3ccccc3Cl)n3nc(N)nc3N2)cc1 (centres undefined) | inactive: -5.91% | –
49 | C/C(=N\NC(=S)NC(C)C)c1ccc2c(c1)OCCO2 | – | active: 4.47 µM
50 | Cc1ccccc1NC(=O)CSc1ccc(-c2ccco2)nn1 | inactive: 14.4% | –
51 | O=C(c1ccco1)N1CCN(c2nnc(-c3ccccc3)c3ccccc23)CC1 | – | inconclusive: 12.6 µM [inhibitor, partial curve, poor fit]
52 | O=C(Nc1ccc(F)cc1)NC1(C(=O)NCc2ccco2)CCCCC1 | inactive: -3.47% | –
53 | CN(C)c1ccc(-c2nnn(CC(=O)NCc3ccc4c(c3)OCO4)n2)cc1 | inactive: -11.7% [at 10 µM] | –
54 | COc1cc(OC)cc(C(=O)Nc2nnc(NC(=S)Nc3ccccc3)s2)c1 | – | inconclusive: 0.631 µM [inhibitor, full curve, poor fit]
55 | Cc1nc2cc(NC(=O)CCS(=O)(=O)c3ccccc3)ccc2s1 | – | inconclusive: 22.4 µM [inhibitor, partial curve, poor fit]
56 | CCOc1ccc(Nc2oc(-c3ccc(Cl)cc3)nc2C#N)cc1 | – | inconclusive: 22.4 µM [inhibitor, single point]
57 | Cc1cc2c(N=O)c(NO)ccc2[nH]1 | – | active: 3.16 µM
58 | O=C(c1cc(-c2ccc(Cl)cc2)n(-c2ccc(Cl)cc2)n1)N1CCOCC1 | – | inconclusive: 31.6 µM [inhibitor, single point]
59 | COc1cccc(-c2ccc(NC(=O)C3CCCN(CCCn4cccn4)C3)cc2)c1 (centres undefined) | – | inconclusive: 35.5 µM [inhibitor, single point]
60 | CCC(C)NC(=O)CSc1nc2n[nH]c(C)c2c(=N)n1-c1ccc(OC)cc1 (centres undefined) | – | inconclusive: 35.5 µM [inhibitor, single point]
61 | Cc1ccccc1-c1ccc2ncnc(NC3CC3)c2c1 | – | inconclusive: 22.4 µM [inhibitor, single point]
62 | Cc1ccc(/C=N/c2sc3c(c2C#N)CCCCC3)o1 | – | inconclusive: 0.141 µM [inhibitor, full curve, poor fit]
63 | CCC(C)N1C(=O)S/C(=C/c2ccc(Sc3nc4ccccc4[nH]3)o2)C1=O (centres undefined) | – | inconclusive: 35.5 µM [inhibitor, single point]
64 | CCc1[nH]nc(C(=O)N2CCCC(CO)(Cc3ccc(F)cc3F)C2)c1C (centres undefined) | – | inconclusive: 35.5 µM [inhibitor, single point]
65 | O=C(O)c1ccc2c(c1)-c1cc(C(=O)O)ccc1S2(=O)=O | inactive: 3.99% | –
66 | COc1ccc(Cc2nnc(NC(=O)CSc3ccc(Cl)cc3)s2)cc1OC | – | inconclusive: 35.5 µM [inhibitor, single point]
67 | CCCCOC(=O)C1=C(C)Nc2ncnn2C1c1cccc(OC)c1 (centres undefined) | – | inconclusive: 28.2 µM [inhibitor, single point]
68 | O=c1c2ccc(Cl)cc2nc(-c2ccc([N+](=O)[O-])cc2)n1O | – | active: 17.8 µM
69 | Cc1ccc(S(=O)(=O)/N=C2/C=C(C3C(=O)CC(C)(C)CC3=O)C(=O)c3ccccc32)cc1 | – | inconclusive: 35.5 µM [inhibitor, single point]
